Test results: PubChem BioAssay AID1508623 (National Center for Advancing Translational Sciences (NCATS), 2021)
Out of some 48,000 compounds screened, about 450 (0.94%) were called active. Inconclusive results (about 19%) are left out. The call rests on the fitted dose curve; in most records, active means well fitted inhibition curve with a large enough effect; inconclusive means small, poorly fitted or top-dose-only effect; inactive means no such curve, though single readings can be large or run the other way. The list shows a part of the results.

Experiment: Primary qHTS for Identification of Small Molecule Inhibitors of Huntingtin Promoter Activity; further: nearly all actives have a fitted effect of over 50% in size
Settings: HEK293 HTT promoter firefly luciferase reporter (activity 0% = vehicle and -100% = no light), 24 h; series mostly up to 57.5 µM; activity change, negative = inhibition: at the top concentration
Method in brief: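 HEK293 cells carrying firefly luciferase reporters were seeded at 2,500 per well in Opti-MEM and cultured for 24 h. They were then treated with compounds at up to 57.5 uM final for 24 h at 37 degrees C before Dual-Glo luminescence readout.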

Activity change, negative = inhibition, inactive:
O=C1CCc2cc(S(=O)(=O)NCc3ccc(Cl)cc3)cc3c2N1CC3 -13.3%
COc1cccc(-c2nnc(-c3cc4cc(Cl)ccc4oc3=O)o2)c1 -11.7% [at 11.5 µM]
COc1cc(-c2noc(CSc3nc(-c4ccc(F)cc4)cc(=O)[nH]3)n2)cc(OC)c1OC 2.61%
COc1ccccc1NC(=O)Cn1cnc2c(nc3n2CCCCC3)c1=O -3.37%
CCC1CCC(C(=O)NC(C(=O)NCCN(CC(C)C)CC(C)C)C(C)C)CC1 (stereo unspecified) -1.03%
Cc1ccccc1CNC(=O)c1ccccc1NC(=O)c1nsc2ccccc12 21.4%
O=C(Nc1ccc(Cl)c(C(F)(F)F)c1)C1CCCN(S(=O)(=O)c2cccc3cccnc23)C1 (stereo unspecified) -1.33%
O=c1c(N2CCN(c3cccc(C(F)(F)F)c3)CC2)csc2ccccc12 -18.5%
CC1CCN(S(=O)(=O)c2ccc3c(c2)c(=O)c(C(=O)NCc2ccc(Cl)cc2)cn3C)CC1 -20.4% [at 11.5 µM]
O=C(Nc1ccc(F)cc1)N1CCN(c2ccc3nnc(-c4ccc(F)cc4)n3n2)CC1 -14.7%
Cc1ccc(-n2nnc(-c3nsc(NC(=O)c4ccccc4C)n3)c2C)cc1Cl -17.3%
COc1ccc(-c2c3c(=O)n(C)c(=O)n(C)c3cn2-c2cccc(N)c2)cc1 -8.82%
COc1ccc(-c2cn3c(n2)sc2cc(C(=O)NCc4cccs4)ccc23)cc1 21.1%
COCCCNC(=O)c1[nH]c2cc(OC)ccc2c1Sc1ccc(C)cc1 -4.57%
CCn1cc(C(=O)NCCc2ccc(Cl)cc2)c(=O)c2cc(S(=O)(=O)N3CCc4ccccc4C3)ccc21 4.84%
Cc1nn(-c2ccccc2)c2c1N(CC(=O)NCc1ccc(N(C)C)cc1)C(=O)CS2 -24.1%
O=C(NCCOCCO)C(=O)Nc1c2c(nn1-c1ccc(F)cc1)CSC2 -9.99%
Cc1ccc2cc3cc(C(=O)N4CCN(c5cccc(C(F)(F)F)c5)CC4)sc3nc2c1 2.55%
CCC(=O)N1CCc2cc(S(=O)(=O)CCC(=O)N3CCN(c4ccccc4Cl)CC3)ccc21 0.43%
Cc1ccc(N(Cc2cccs2)C(=O)c2ccccc2)cc1 -21.6%
COc1ccc(-c2nc3ccc(NS(C)(=O)=O)cc3o2)cc1 85.7%
Clc1ccccc1Cn1cccc1C1=NC(Cc2ccccc2)CO1 (stereo unspecified) -5.28%
Cn1c(SCC(N)=O)nc2c([nH]c3ccccc32)c1=O 4.84%
O=C(O)c1ccc(Nc2nc(-c3ccccc3)c3cc(Br)ccc3n2)cc1 -18.7%
Cc1noc(/C=C/c2ccccc2F)c1S(=O)(=O)N1CCC(C(=O)N2CCOc3ccccc32)CC1 -7.67%
CCc1ccc(NC(=O)Cn2c(=O)n(CCC(=O)NCCc3ccc(Cl)cc3)c(=O)c3ccccc32)cc1 -10.3%
COc1ccc(C(=O)Nc2nc(-c3nnn(-c4ccc(C(C)C)cc4)c3C)ns2)cc1 -26.4%
COc1ccccc1CCNC(=O)C(C)Sc1nc(-c2ccccc2)cc(C(F)(F)F)n1 (stereo unspecified) -3.1%
O=C(Cn1ncn2c(cc3ccccc32)c1=O)NCc1ccc(F)cc1 -6.33%
COc1ccc(Nc2ncnc3c2nc2n3CCCCC2)cc1 17.2%
CCCOc1ccc(CNC(=O)c2[nH]c3cc(OC)ccc3c2Sc2ccccc2)cc1 -6.67%
COc1ccc(CCNC(=O)c2c(C)oc3ncn(C)c(=O)c23)c(OC)c1 0%
CC(=O)Nc1ccc(N(C(=O)Cn2nnc3ccccc32)C(C(=O)NCc2ccccc2)c2ccc(C)cc2)cc1 (stereo unspecified) -22.3%
Cc1ccc2[nH]c(=O)c3cc(C(=O)NCCCN4CCC(C)CC4)sc3c2c1 -25.2%
CCOC(=O)C(Cc1c[nH]c2ccccc12)NC(=O)COc1ccc(CC)cc1 (stereo unspecified) -18.7%
Cc1cc(NC(=O)CN2CCC(C)CC2)nc2c1c(=O)oc1ccccc12 12.3%
Cc1ccc(Cl)cc1NC(=O)CN1C(=O)CCc2ccccc21 -18.6%
CCOC(=O)c1c(C)[nH]c(C)c1S(=O)(=O)N1CCC(C(=O)NCc2ccccc2Cl)CC1 -31.6%
COc1ccc(CC(=O)NCc2nc3cccnc3n2Cc2ccccc2)cc1 -0.0029%
COC(=O)c1ccccc1NC(=O)CCCn1c(=O)c2cccn2c2cccnc21 -7.76%
CC(C)COc1ccc(C(=O)Nc2cc(-c3ccccc3)no2)cc1 15%
O=C(Cn1cnc2ccccc2c1=O)NCCC(=O)Nc1ccc(F)cc1 12.2% [at 11.5 µM]
COc1cccc(N2CCN(S(=O)(=O)c3cc(-c4cc(C)no4)ccc3C)CC2)c1 -3.52%
CCCCN(CC)CCCNC(=O)Cn1ncc2c([nH]c3ccc(C)cc32)c1=O 7.21%
O=c1c2cn[nH]c2nc(SCc2c(F)cccc2F)n1-c1ccc(Cl)cc1 -11.7%
COc1ccc(N(CC(=O)N2CCN(c3ccc(F)cc3)CC2)S(=O)(=O)c2c(C)noc2C)cc1 -26.5%
Cc1ccc(/C=C/C(=O)Nc2ccccc2C(N)=O)o1 60.3%
COc1cc(OC)cc(-c2nc3n(n2)C(c2ccccc2)C(C(N)=O)=C(C)N3)c1 (stereo unspecified) -6.9%
CC(C)(C)OC(=O)N1CCC(c2c(C(=O)NCCc3ccccc3)cnn2-c2ccc(F)cc2F)CC1 -5.33%
Cc1ccc(CCNC(=O)c2c(C)oc3ncn(CC(C)C)c(=O)c23)cc1 -9.08%
COc1ccc(-c2c(C)c3ccc(O)c(CN4CCN(CCO)CC4)c3oc2=O)cc1OC -13.3%
Cn1c(=O)oc2cc(S(=O)(=O)N3CCC(C(=O)N4CCN(c5ccccc5F)CC4)CC3)ccc21 -17.6%
O=C(Nc1ncc([N+](=O)[O-])s1)c1cccs1 -26%
COc1ccc(C(=O)NCc2ccc(OCCN(C)C)cc2)cc1OC 5.46%
Cc1ccc(C)c(N2CCN(C(=O)CSCc3ccccc3Cl)CC2)c1 -20.2%
Cc1cccc(NC(=O)CCS(=O)(=O)c2cc(Br)cc3c2N(C(=O)C2CC2)CC3)c1 -10.4%
Cc1ccc(CNC(=O)CC2Oc3ccc(Cl)cc3NC2=O)cc1 (stereo unspecified) -3.63%
CC(=O)Nc1ccccc1-c1nc2ccccc2n(CC(=O)Nc2cccc(C(F)(F)F)c2)c1=O -25.2%
Cc1ccc(CO)cc1Nc1ncnc2onc(-c3ccc(F)cc3)c12 -13.7%
CCS(=O)(=O)N1CC(=O)N(c2ccc(Cl)cc2)C(C)(C(=O)NC2CCCCC2)C1 (stereo unspecified) 4.77%
CCOc1cccc2cc(S(=O)(=O)c3ccccc3F)c(=O)oc12 -28.8%
